The full ranking holds about 81,000 sequences; the median of “one-hybrid fitness for binding NBS DNA” is about -0.1, and the highest 2% start at about 0.36. The list shows a part of the results.
B1: Caulobacter ParB omega fusion; a variant is named by its letters at X, in order, B8GW30 (parent)
chain: MESVVVGEPGMSEGRRGLGRGLSALLGEVDAAPAQAPGEQLGGSREAPIEILQRNPDQPRRTFREEDLEDLSNSIREKGVLQPILVRPSPDTAGEYQIVAGERAWRAAQRAGLKTVPIMVRELDDLAVLEIGIIENVQRADLNVLEEALSYKVLMEKFERTQENIAQTIGKSXSHVANXMRLLXLPDEVQSYLVSGELTAXHARAIAAAADPVALAKQIIEGGLSVRETEALARKAPNLSAGKSKGGRPPRVKDTDTQALESDLSSVLGLDVSIDHRGSTGTLTITYATLEQLDDLCNRLTRGI

Variants of: B1
Assay: one-hybrid fitness for binding NBS DNA (the Noc-binding site; scaled: cognate 1, non-cognate 0); higher = stronger binding
Conditions: with NBS DNA site
Summary of the method: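 Pre- and post-selection plasmids were Illumina-sequenced, three replicate libraries were pooled, and any variant with under 10 reads was removed. The libraries were Caulobacter ParB with four specificity codons randomised, selected in E. coli USO through a HIS3 reporter whose site is 19 bp from the promoter. Cells grew 48 hours at 37°C on M9 without histidine, with 0.1 mM IPTG and 5 mM 3-AT. Fitness is the log change in variant-to-wild-type read ratio, rescaled against cognate and non-cognate.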

| Variant | one-hybrid fitness for binding NBS DNA |
| --- | --- |
| MPPE | ≤ 0.2 |
| SQRS | ≤ 0.2 |
| HYPT | ≤ 0.2 |
| NHYI | ≤ 0.2 |
| RHEH | ≤ 0.2 |
| SKIG | ≤ 0.2 |
| ALVE | ≤ 0.2 |
| THLR | ≤ 0.2 |
| CLGE | ≤ 0.2 |
| EGLC | ≤ 0.2 |
| ELQE | ≤ 0.2 |
| YIRH | ≤ 0.2 |
| VFPR | ≤ 0.2 |
| EMFR | ≤ 0.2 |
| TLTN | ≤ 0.2 |
| RTFW | ≤ 0.2 |
| ELAG | ≤ 0.2 |
| YTLC | ≤ 0.2 |
| ARSK | ≤ 0.2 |
| YAGW | ≤ 0.2 |
| FKRG | ≤ 0.2 |
| RCMY | ≤ 0.2 |
| YTNR | ≤ 0.2 |
| KGQY | ≤ 0.2 |
| YASY | ≤ 0.2 |

| Variant | one-hybrid fitness for binding NBS DNA |
| --- | --- |
| GETQ | ≤ 0.2 |
| RFGK | ≤ 0.2 |
| RVPC | ≤ 0.2 |
| ANHC | ≤ 0.2 |
| CYTD | ≤ 0.2 |
| TMHW | ≤ 0.2 |
| FMTC | ≤ 0.2 |
| AYIS | ≤ 0.2 |
| KGTW | ≤ 0.2 |
| SGMD | ≤ 0.2 |
| TNRG | ≤ 0.2 |
| WMQT | ≤ 0.2 |
| LPMS | ≤ 0.2 |
| PERG | ≤ 0.2 |
| KYKF | ≤ 0.2 |
| MMKN | ≤ 0.2 |
| PSPI | ≤ 0.2 |
| LYQE | ≤ 0.2 |
| YIHY | ≤ 0.2 |
| RRHV | 0.314 |
| QFPM | ≤ 0.2 |
| LGVM | ≤ 0.2 |
| SRNK | ≤ 0.2 |
| VEQR | ≤ 0.2 |
| PPMN | ≤ 0.2 |

| Variant | one-hybrid fitness for binding NBS DNA |
| --- | --- |
| PCIS | ≤ 0.2 |
| TCWR | ≤ 0.2 |
| SPRA | ≤ 0.2 |
| NCMS | ≤ 0.2 |
| EKDF | ≤ 0.2 |
| SPCC | ≤ 0.2 |
| TKMN | ≤ 0.2 |
| MPNL | ≤ 0.2 |
| PTVR | ≤ 0.2 |
| KAYG | ≤ 0.2 |
| VNNF | ≤ 0.2 |
| LVWH | ≤ 0.2 |
| RNIL | ≤ 0.2 |
| NMSI | ≤ 0.2 |
| HMML | ≤ 0.2 |
| YFTR | ≤ 0.2 |
| VMKR | 0.208 |
| GLSW | ≤ 0.2 |
| NVNA | ≤ 0.2 |
| WHLT | ≤ 0.2 |
| NAGY | ≤ 0.2 |
| LVPF | ≤ 0.2 |
| QRRT | 0.863 |
| WSEI | ≤ 0.2 |
| QAHK | ≤ 0.2 |

| Variant | one-hybrid fitness for binding NBS DNA |
| --- | --- |
| SRQQ | ≤ 0.2 |
| RIHI | ≤ 0.2 |
| HEKF | ≤ 0.2 |
| MWAR | ≤ 0.2 |
| NSSM | ≤ 0.2 |
| ALQC | ≤ 0.2 |
| GHLA | ≤ 0.2 |
| ITTC | ≤ 0.2 |
| PTYC | ≤ 0.2 |
| DPRY | ≤ 0.2 |
| HTYR | ≤ 0.2 |
| RIAD | ≤ 0.2 |
| HQVC | ≤ 0.2 |
| TPPR | ≤ 0.2 |
| INMN | ≤ 0.2 |
| GTSH | ≤ 0.2 |
| IQGC | ≤ 0.2 |
| SALP | ≤ 0.2 |
| DVPF | ≤ 0.2 |
| DTAF | ≤ 0.2 |
| HDNA | ≤ 0.2 |
| MQHG | ≤ 0.2 |
| APVM | ≤ 0.2 |
| PLQQ | ≤ 0.2 |
| KWLA | ≤ 0.2 |

| Variant | one-hybrid fitness for binding NBS DNA |
| --- | --- |
| MSGG | ≤ 0.2 |
| FAGG | ≤ 0.2 |
| TIPY | ≤ 0.2 |
| THYI | ≤ 0.2 |
| RVCN | ≤ 0.2 |
| PCYC | ≤ 0.2 |
| NNWS | ≤ 0.2 |
| TTFP | ≤ 0.2 |
| SAFS | ≤ 0.2 |
| HIRV | ≤ 0.2 |
| RNIT | ≤ 0.2 |
| GMCS | ≤ 0.2 |
| VMTL | ≤ 0.2 |
| NRTF | ≤ 0.2 |
| TDPV | ≤ 0.2 |
| GIKA | ≤ 0.2 |
| GCHI | ≤ 0.2 |
| EQTA | ≤ 0.2 |
| KAQC | ≤ 0.2 |
| PGPV | ≤ 0.2 |
| PPDI | ≤ 0.2 |
| QMHF | ≤ 0.2 |
| PMHA | ≤ 0.2 |
| RTFR | 0.441 |
| VHNY | ≤ 0.2 |

| Variant | one-hybrid fitness for binding NBS DNA |
| --- | --- |
| HYCR | ≤ 0.2 |
| SHPN | ≤ 0.2 |
| RMPN | ≤ 0.2 |
| VIEL | ≤ 0.2 |
| HHYR | ≤ 0.2 |
| VIYS | ≤ 0.2 |
| RQDW | ≤ 0.2 |
| EPNM | ≤ 0.2 |
| KHPS | ≤ 0.2 |
| KRAA | 0.312 |
| RNGN | ≤ 0.2 |
| QCFR | 0.517 |
| FVYS | ≤ 0.2 |
| EKTS | ≤ 0.2 |
| ITRS | ≤ 0.2 |
| DMVT | ≤ 0.2 |
| AALI | ≤ 0.2 |
| PMGI | ≤ 0.2 |
| SGPP | ≤ 0.2 |
| FWIG | ≤ 0.2 |
| HPTE | ≤ 0.2 |
| KFQS | ≤ 0.2 |
| FSVR | ≤ 0.2 |
| RMNA | ≤ 0.2 |
| YRCA | ≤ 0.2 |

| Variant | one-hybrid fitness for binding NBS DNA |
| --- | --- |
| WLGR | ≤ 0.2 |
| KTRN | ≤ 0.2 |
| PMRI | ≤ 0.2 |
| KRTN | ≤ 0.2 |
| SLYW | ≤ 0.2 |
| PNSF | ≤ 0.2 |
| PSCQ | ≤ 0.2 |
| SMVN | ≤ 0.2 |
| RANK | ≤ 0.2 |
| NLWS | ≤ 0.2 |
| PIRW | ≤ 0.2 |
| FPKG | ≤ 0.2 |
| LEPH | ≤ 0.2 |
| PSLC | ≤ 0.2 |
| FNLM | ≤ 0.2 |
| DHRV | ≤ 0.2 |
| YFHG | ≤ 0.2 |
| CLGS | ≤ 0.2 |
| TFDV | ≤ 0.2 |
| QPTA | ≤ 0.2 |
| GCES | ≤ 0.2 |
| DIQL | ≤ 0.2 |
| TYCS | ≤ 0.2 |
| RVGF | ≤ 0.2 |
| SWLQ | ≤ 0.2 |

| Variant | one-hybrid fitness for binding NBS DNA |
| --- | --- |
| KFKV | ≤ 0.2 |
| MWKG | ≤ 0.2 |
| RIDF | ≤ 0.2 |
| LNCY | ≤ 0.2 |
| IFYY | ≤ 0.2 |
| SWRN | ≤ 0.2 |
| STKF | ≤ 0.2 |
| VKPD | ≤ 0.2 |
| NYLR | ≤ 0.2 |
| QNDT | ≤ 0.2 |
| CPLF | ≤ 0.2 |
| SDEG | ≤ 0.2 |
| GHLG | ≤ 0.2 |
| SGCS | ≤ 0.2 |
| PSEA | ≤ 0.2 |
| TRAN | ≤ 0.2 |
| PSSM | ≤ 0.2 |
| HETH | ≤ 0.2 |
| QKTN | ≤ 0.2 |
| IVLC | ≤ 0.2 |

From a collection of fitness landscapes (doi:10.1016/j.celrep.2020.107928)
